The values that follow come from the RNAGym collection of RNA variant scans (doi:10.7554/elife.90254).

The chains are these.
B1: LINE1-mini (parent)
chain: GGCAGAGCUCAACACAGCGUGGCAAAGUGGCUGUGGCUAGACUGCC

Read counts are not given, so values of variants with three or more changes are uncertain.

Variants of B1 are the subject of this data set. The experiment in a line: self-cleavage, relative activity (ratio to wild type); higher = more cleavage; in vitro, sequencing; the parent is a self-cleaving ribozyme.
In the case of C3U A6C G21C G35C C37A A41C, the self-cleavage worked out at 0.01.

Regarding C3U G22A G33C C46U, the self-cleavage is 0.06.

Regarding C3U A24G C46G, the self-cleavage is 0.27.

As for C3U A25C G35U C37U, the self-cleavage turned out to be 0.09.

With A4C C8U G22C C42A, the self-cleavage amounted to 0.01.

Regarding C3U U20G G30U, the self-cleavage came out at 0.34.

As to C3U G17U G19U A25G G36U C37G, the self-cleavage stood at 0.01.

For the variant C3U C10U G22C G27C, the self-cleavage worked out at 0.04.

C3U C15A G40A: the self-cleavage was 0.03.

As to C3U A6U A24C, the self-cleavage worked out at 0.28.

Take C3U A26G A41C U43G: the self-cleavage came out at 0.05.

Take C3U C18A U34G: the self-cleavage stood at 0.02.

With A4C A12C A26C, the self-cleavage is 0.02.

Regarding A4C C8U G29C G33U A41C, the self-cleavage is 0.04.

For the variant C3U A24G G36U, the self-cleavage is 0.69.

For C3U G22C C42A, the self-cleavage worked out at 0.04.

With C3U G27A G33U, the self-cleavage was 0.09.

C3U A24C G29U: the self-cleavage amounted to 0.21.

Turning to C3U C10A G19A, the self-cleavage turned out to be 0.08.

For the variant C3U C10A C15U C18U C46A, the self-cleavage was found to be 0.04.

Regarding C3U C13U A14U U43A, the self-cleavage is 0.04.

With A4C A16C C45G, the self-cleavage was 0.05.

A4C A16U G29A: the self-cleavage worked out at 0.04.

For the variant A4C A11C G17U C37U, the self-cleavage came to 0.

On to A4C C8U A11G G19A, for which the self-cleavage was 0.01.

With C3U A14C A39G, the self-cleavage amounted to 0.02.

On to A4C C10A U28G U32G, for which the self-cleavage worked out at 0.02.

Regarding C3U A6U U9G A12U C15A G44U, the self-cleavage stood at 0.15.

Take C3U G19U A26U: the self-cleavage was 0.22.

In the case of C3U A4C U9A C31A C42G C45A, the self-cleavage is 0.07.

For C3U A4C A12C A14C G40A, the self-cleavage was found to be 0.02.

Consider C3U G5U G33U U34A G35C A39C, for which the self-cleavage was determined as 0.05.

For the variant A4C C8A A14U A16G C45U, the self-cleavage came out at 0.13.

As for A4C A24U C45G, the self-cleavage was determined as 0.19.

As to C3U G5A C10U G29C, the self-cleavage is 0.06.

As for C3U A14U A26U G36U A41G G44C, the self-cleavage was found to be 0.04.

For the variant C3U A11C G40A A41U U43G C45A, the self-cleavage is 0.01.

Turning to A4C A12U U34A, the self-cleavage was 0.06.

Turning to A4C A25C G29C G40C, the self-cleavage came to 0.02.

Turning to C3U G36A C37A, the self-cleavage is 0.11.

Regarding A4C A12U G27C G40U C42U, the self-cleavage is 0.02.

Regarding C3U A4C G27A, the self-cleavage was found to be 0.06.

With C3U U20G A25G C37U C46U, the self-cleavage worked out at 0.01.

In the case of C3U G5A G27A G33U, the self-cleavage turned out to be 0.13.

As to C3U G35U C37U, the self-cleavage is 0.03.

With C3U G40U G44C, the self-cleavage was 0.

Regarding A4C C10A U43G C45G, the self-cleavage turned out to be 0.01.

As for C3U G30A G36U, the self-cleavage came to 0.57.

In the case of C3U A6G G19C G30A, the self-cleavage turned out to be 0.1.

C3U C10U A14G C15G G19U G22U: the self-cleavage is 0.02.

Turning to C3U A12U A26C G36A C37A U43G, the self-cleavage is 0.01.

Consider C3U A4C A11U G21U G22A U28A G35A, for which the self-cleavage is 0.02.

As to C3U C8U U43G, the self-cleavage was determined as 1.11.

Take C3U A4C A6G G36U: the self-cleavage was determined as 0.17.

C3U A6G G19C C31U G35U: the self-cleavage came out at 0.04.

For C3U C15G U38G C46U, the self-cleavage amounted to 0.02.

As to C3U C13U U38G, the self-cleavage turned out to be 0.01.

As to C3U C8G C15U A16C C18G A26U, the self-cleavage came to 0.11.

A4C A12C G21C A24C G30A C46A: the self-cleavage was found to be 0.

As to C3U A24G A39C, the self-cleavage was determined as 0.14.

On to C3U A6U A26U G27C G35C C37G, for which the self-cleavage was 0.09.

Take C3U C8U C15A: the self-cleavage came to 0.53.

Take C3U A4U C10A A12G A16U G19A G33U G40A: the self-cleavage was determined as 0.01.

In the case of A4C A11C G22A U32C, the self-cleavage was found to be 0.04.

For C3U U38G G40A G44A, the self-cleavage came to 0.02.

In the case of C3U A4U C13A G36U, the self-cleavage worked out at 0.12.

For the variant C3U G19U A26C G35C, the self-cleavage was determined as 0.2.

In the case of C3U C13U U20C U43A, the self-cleavage was determined as 0.03.

Regarding C3U C15G A16U C31U, the self-cleavage worked out at 0.08.

Consider C3U G7C U32C, for which the self-cleavage is 0.27.

Turning to C3U C18U G29A A41U, the self-cleavage worked out at 0.35.

For A4C A26U A39G, the self-cleavage came out at 0.23.

C3U G5A G17C G33U C45U: the self-cleavage was 0.05.

As for C3U A6G C15U C31G, the self-cleavage stood at 0.09.

C3U U28G A39U: the self-cleavage was found to be 0.07.

For the variant C3U C8A A39U C42U, the self-cleavage is 0.03.

For the variant A4C A14C C23U, the self-cleavage was found to be 0.1.

As to C3U G5C C13A G30C, the self-cleavage is 0.11.

C3U U38G G40A: the self-cleavage was found to be 0.

As for C3U U32A C45G, the self-cleavage came out at 0.07.

Take C3U C23G C31G G40U: the self-cleavage is 0.21.

With A4C A12G U28G C45A, the self-cleavage came to 0.01.

With C3U A16C A24C, the self-cleavage was found to be 0.03.

Consider C3U U9C G22U C37G, for which the self-cleavage is 0.06.

As to C3U G7C C8A A16G, the self-cleavage is 0.06.

Turning to C3U C31U C46G, the self-cleavage came to 0.03.

With C3U C10U C18A U34C C42U C46A, the self-cleavage was 0.04.

In the case of C3U C23G A25U G27U C31A U34A A39U, the self-cleavage amounted to 0.1.

On to C3U G19C G33A G40U, for which the self-cleavage turned out to be 0.03.

As to C3U G5U C18U G22U G30C G35U, the self-cleavage stood at 0.03.

For A4C A6C A14G C15A, the self-cleavage was 0.03.

As to C3U A11G U20A C46G, the self-cleavage worked out at 0.03.

As for C3U G30C G33A, the self-cleavage stood at 0.07.

In the case of C3U G7A A41C C46A, the self-cleavage was determined as 0.06.

For the variant C3U A4G C31U G33A A41C, the self-cleavage amounted to 0.19.

Regarding C3U A16G U28C U34C, the self-cleavage amounted to 0.1.

Take C3U C10A G21U G36U: the self-cleavage was found to be 0.05.

For the variant C3U G17U U32A, the self-cleavage turned out to be 0.09.

As to C3U C31U G33U, the self-cleavage is 0.14.

For the variant C3U G40A C42A, the self-cleavage was found to be 0.14.

Regarding C3U A4G A12C, the self-cleavage was determined as 0.15.

For C3U A11C C13U G40A, the self-cleavage was 0.03.

Regarding C3U A6U A16G G44C, the self-cleavage turned out to be 0.08.

With C3U G40C A41U C42U, the self-cleavage worked out at 0.05.

In the case of C3U G7A A12G, the self-cleavage was 0.12.

For the variant A4C A11U G33C C37G, the self-cleavage came to 0.02.

In the case of C3U G7A C8G C23A G29C G35A, the self-cleavage amounted to 0.11.

As for C3U G5A C13A G17U C45U, the self-cleavage came out at 0.03.

Regarding C3U U9G C15G G19U, the self-cleavage came out at 0.05.

With C3U A16C G27A A41U, the self-cleavage is 0.56.

Turning to C3U A16G G17C G36C G40A, the self-cleavage was 0.01.

Regarding C3U C10A G27U, the self-cleavage is 0.04.

As for A4C A12G G35U, the self-cleavage came to 0.03.

On to C3U G7A C23A C37A U43G, for which the self-cleavage turned out to be 0.02.

As to C3U A14G G22U, the self-cleavage was found to be 0.34.

Consider C3U C18G A25C G27U, for which the self-cleavage was determined as 0.79.

Regarding C3U A39C C46G, the self-cleavage is 0.04.

As to C3U C10A G17C C23A G29U, the self-cleavage came to 0.04.

Regarding A4C C8U C10G G17A C23G G35C, the self-cleavage is 0.01.

Regarding C3U A16G G40A, the self-cleavage is 0.

Take C3U A6C G29U G44U: the self-cleavage amounted to 0.08.

With C3U G17A C18U C37A, the self-cleavage was 0.18.

Consider C3U C10A C18A A26C, for which the self-cleavage amounted to 0.01.

In the case of A4C C8G C10U A26U G44C, the self-cleavage stood at 0.11.

With C3U A4U U34G, the self-cleavage was 0.06.

For the variant A4C A25C G33C A39U C45U, the self-cleavage was found to be 0.02.

As to C3U A26U C46A, the self-cleavage was determined as 0.35.

For the variant C3U C13A U20G U34A U38G, the self-cleavage was found to be 0.01.

Regarding C3U U20C A39U, the self-cleavage worked out at 0.11.

For the variant A4C A24C G35C, the self-cleavage worked out at 0.03.

With C3U C8G C13G, the self-cleavage was determined as 0.53.

With C3U A11C U20G, the self-cleavage amounted to 0.02.

For C3U C8A A11U A12C A14U U34C, the self-cleavage is 0.03.

For A4C C10A A11C C15G C18G C37A, the self-cleavage was found to be 0.01.

C3U G7A G44C: the self-cleavage is 0.28.

Regarding C3U A12C A16C, the self-cleavage came out at 0.04.

Consider C3U U9A C45G, for which the self-cleavage was 0.

Regarding C3U G22C A39G, the self-cleavage was determined as 0.07.

For the variant C3U C15G G19U C31A A39C, the self-cleavage is 0.03.

Consider C3U G22U U28A, for which the self-cleavage stood at 0.33.

With C3U C8G G35U, the self-cleavage amounted to 0.15.

Consider C3U A11C C23G, for which the self-cleavage worked out at 0.02.

Regarding C3U A25C C31A, the self-cleavage was 0.23.

Turning to C3U C8A C13U G40U, the self-cleavage was 0.07.

On to C3U C8A C31A, for which the self-cleavage is 0.43.

Consider A4C A12C A39U, for which the self-cleavage turned out to be 0.07.

Take C3U A4G G7C G35U G44A: the self-cleavage was found to be 0.05.

Regarding C3U G17U A26G G36U, the self-cleavage came to 0.04.

In the case of C3U G17A C18G C31G, the self-cleavage amounted to 0.04.

With C3U G40U C45A C46U, the self-cleavage is 0.15.

Consider A4C C8A C46U, for which the self-cleavage came out at 0.31.

For the variant C3U U32A G35C C37G, the self-cleavage is 0.03.

For the variant A4C C10U A26G G33U G44U, the self-cleavage stood at 0.03.

Take C3U G17C C18U C23U U32C G35U: the self-cleavage is 0.07.

For C3U G17A G27C G36C, the self-cleavage was 0.05.

Take A4C C10U A12U A26U: the self-cleavage amounted to 0.04.

As to C3U A4U A6C C18G A25U U38C C46U, the self-cleavage is 0.07.

As for C3U G5A C8U G36U, the self-cleavage was found to be 0.32.

As to A4C A26G C46A, the self-cleavage turned out to be 0.05.

With C3U A16U G17A U20A A25G G27C A41U C46U, the self-cleavage was 0.07.

As to A4C A6C G17U U34G G35U, the self-cleavage was 0.2.

C3U C15A G19A A26U U28G U32G G33U: the self-cleavage is 0.05.

Consider C3U A16U A41U C42U, for which the self-cleavage turned out to be 0.06.

As for C3U C10U U43G C45U, the self-cleavage amounted to 0.11.

C3U G5U U34G: the self-cleavage was 0.01.

For C3U G7A C13A, the self-cleavage turned out to be 0.41.

In the case of C3U U20G G27A, the self-cleavage was 0.28.
